Data on 22 molecules can be found in publication PMC12136788.

B1: chr11:122930872:122930873:-_ENSG00000109971_ENST00000227378|hu_hu|motif|central (ssRNA)
RNA: GGGAGUUCUACAGUCCGACGAUCAACCUUUUUGUCUAAGCCGUAAGCAAUAGCAGCAGCAGUUGGCUCAUUAAUAAUUCGGAGUACAUUGAGACCAGCAAUAGUUCCAGCAUCUUUGGUAGCCUGACGCUGAGAGUCAUUAAACAACAGAGGAUUGAGCAUCA
B2: chr4:148551591:148551592:-_ENSMUSG00000063077_ENSMUST00000060537|mus_hu|mus_mus_mus_hu_False|8_58 (ssRNA)
RNA: GGGAGUUCUACAGUCCGACGAUCACCUGACAAAAUUAAAUAUCCCUGUAAAUUAGACAAUAAGCAGCAGGCAACAAAGUCUAUGCUUUGGAAUAUGUGCCAGGAAAAGUCAUCUUGUUUUUAGAUCACACCUUUCAGUUCACACAACAGAGGAUUGAGCAUCA
B3: chr15:84027467:84027468:+_ENSMUSG00000022437_ENSMUST00000023071|mus_hu|FALSE|FALSE (ssRNA)
RNA: GGGAGUUCUACAGUCCGACGAUCUUUGGCCUUGAAAACAUCUCCAAUUUCACAAAUGAUGAUAUCAUCUUUAGUCCUUCCAAGUCCAUCAAAAUGAACAUGUUGAACAACCACAUCUUUGUUUUCAAGAAUUUCCUGUUUAGCCAACAGAGGAUUGAGCAUCA
B4: chr2:155483634:155483635:-_ENSMUSG00000038324_ENSMUST00000041059|perfect_dup|FALSE|FALSE (ssRNA)
RNA: GGGAGUUCUACAGUCCGACGAUCGGUGACAGCCAGGAUCCUGCAGAAGUUAGCAAGCUGCUGCUGAUCGAAAUUGGAUACUAAGGAACUCAGAUUGGGAACUUCAUCUAGCCGGAUCAUUUCCUUCUUAACACCCAAAAUGUCCAACAGAGGAUUGAGCAUCA
B5: chr5:23013406:23013407:-_ENSMUSG00000062604_ENSMUST00000088392|mus_mus|motif|central (ssRNA)
RNA: GGGAGUUCUACAGUCCGACGAUCUCCAAUGUACUGGGAGAAAUUUGCUAGCUCAGAAUGCUAUAUUUGUAGAAUCUGCGGAGAAUUCAACCAAGGAUGUCGAAGGCAUUCGCCAGCUGAGGCUCGUUUUUCUGGAACCAUCUCCAACAGAGGAUUGAGCAUCA
B6: chr3:122261000:122261001:-_ENSMUSG00000039735_ENSMUST00000162409|mus_hu|motif|central (ssRNA)
RNA: GGGAGUUCUACAGUCCGACGAUCGUAAUCUUCAAAUGGAAAGUCUCCUGGAGGUUCAAAACCAGAUUUGAAGGAGUCGGCCACCAUUUGAGAGUCUCUUCUUUCAUCAACUGAUUUUGCUGCAAGAAUCAUUCCUUCCAAACACAACAGAGGAUUGAGCAUCA
B7: chr5:43656058:43656059:+_ENSG00000112992_ENST00000512996|hu_mus|FALSE|FALSE (ssRNA)
RNA: GGGAGUUCUACAGUCCGACGAUCGUAAGCCACAAUCUUGGUGAAAUUUGACGUGGCAUCCAUUGCAAAAUGUGGAUACUCUACGAUGUACUCGGCCAUGCAGGUAAGAACUGCUGCCAGCCCCACCAAACUGUGGAAAGCAGCCAACAGAGGAUUGAGCAUCA
B8: chr5:33369694:33369695:+_ENSMUSG00000018965_ENSMUST00000019109|mus_mus|FALSE|FALSE (ssRNA)
RNA: GGGAGUUCUACAGUCCGACGAUCGGAAUCCUCGUUUAAUGUGUCCAGCUCAGCUAUAGCAUCAUCGAAGGCUUGUUUGGCUAAGAGGCAGGCUUGCUCUGGUGCAUUCUGGAUCUCAUAGUAGAACACAGAAAAAUUGAGGGCCAACAGAGGAUUGAGCAUCA
B9: chrX:153608698:153608699:+_ENSG00000102119_ENST00000428228|hu_hu|FALSE|FALSE (ssRNA)
RNA: GGGAGUUCUACAGUCCGACGAUCAAGAAGACAAAAGAUCGUCAUCAUGCACCUGGUGAUGGAAAGCGUCAGCAUCUGGGAAUGAAGUCACUGACUGGCGGACAGCCCUGGACGGGCCGGCAGACUCGGGCUCCCCAUAAGUCCCAACAGAGGAUUGAGCAUCA
B10: chr15:31387667:31387668:-_ENSMUSG00000039100_ENSMUST00000090227|mus_mus|FALSE|FALSE (ssRNA)
RNA: GGGAGUUCUACAGUCCGACGAUCUGGGCCCUCAGACCUUUCCAACUAUGGGUUUAAUACUCCAUGGAACUCUUUACAGUCUAUGAAAGCUUCUAGCACUAUCCUUAUAAUACACCUUUACCAUUAAACACUUGAAUGACGUACCAACAGAGGAUUGAGCAUCA
B11: 125334109_125334363_2357_CDS_ENSMUSG00000030655_ENSMUST00000032891|mouse|control|control (ssRNA)
RNA: GGGAGUUCUACAGUCCGACGAUCAUCAAAUAAGGAAGGGGAUGAAGAGCUAAGACUACUGGAUAUGAAGUGAUCGUGCCUGGUACAAUGGGAAUACAGGGUGUAGAGCACCGCAUACUGAAUGGCAGGGAAGUGAACAGCCAGCAACAGAGGAUUGAGCAUCA
B12: chr2:157388187:157388188:+_ENSMUSG00000067786_ENSMUST00000109526|mus_mus|motif|central (ssRNA)
RNA: GGGAGUUCUACAGUCCGACGAUCUUUUGGUGGAGGUGGUCCCUGUCUCCAGGAGCUUACAAUCUAGCUGGGGAGACACGGCGGAUGCACACUUAAACCAGUACAAUUAGCGACUACCACAAUAUUGACCACAACUGCUGCGUGCAACAGAGGAUUGAGCAUCA
B13: chr18:42480448:42480449:+_ENSMUSG00000024491_ENSMUST00000091920|mus_hu|motif|central (ssRNA)
RNA: GGGAGUUCUACAGUCCGACGAUCGAAGUGUUCAUUGAGCUUGGUAAUGUUGUUCAAUUCCUGAGGGAUUUUCUUGACUUCGGAUUUGGUGUUUGUAUACUGAUUCUUUCGUAAGAACCCUGGUUUAUUUUGAUUGUUAUUUCCCAACAGAGGAUUGAGCAUCA
B14: chr4:33332862:33332863:-_ENSMUSG00000040128_ENSMUST00000049357|mus_mus|motif|central (ssRNA)
RNA: GGGAGUUCUACAGUCCGACGAUCUAUAUACAAAACACCACCACAGCUGCAGGGCAAAAUACAUACUUUCAUAACAAAACGGUAAUGUCCUCUCAAGUAUGAACAAUGUACACAUAAUACAUGGUAUACAGUAUUUACAAAAUACAACAGAGGAUUGAGCAUCA
B15: chr17:63010574:63010575:-_ENSG00000120063_ENST00000439174|hu_mus|FALSE|FALSE (ssRNA)
RNA: GGGAGUUCUACAGUCCGACGAUCGAAGCAUUCCACCAGAAACUUUUGGACGUCUCUUAAGCAGUGGGGGUCCCCUUCAAAUUCUAGGAAAUAGUCUUUGAUGCUAACAACUUGCACUUUCUCCUCGAGCAAGUCUGUCUUGUUCAACAGAGGAUUGAGCAUCA
B16: chr9:110451384:110451385:+_ENSMUSG00000044791_ENSMUST00000153838|mus_mus|motif|central (ssRNA)
RNA: GGGAGUUCUACAGUCCGACGAUCAGAAAUCUUAUUAAUUGUUCUUAAUUCACUACCUUUUGAACAAGGAGUCUGCAAACGGAACGAAUGAGAUUGUUUGUUUUCCUCAUUUAAUUCUGUACAACAGAAAGAAUUUUUAAAUUUCAACAGAGGAUUGAGCAUCA
B17: chr16:94664741:94664742:+_ENSMUSG00000040785_ENSMUST00000117648|mus_hu|mus_mus_mus_hu_False|98_98 (ssRNA)
RNA: GGGAGUUCUACAGUCCGACGAUCUGGUACUGAUCUUUGCAUUGGAUAUUCAGGAGAAAGGCUGGCCAAGGGUGUAUAUAUGCUGGUGUACUGGGGCAAACCUGGUAACACGUUUAUGUAUGCUGGCGGUGUCUGGGUGAUAUCCAACAGAGGAUUGAGCAUCA
B18: chr11:99246770:99246771:-_ENSMUSG00000019761_ENSMUST00000103131|mus_mus|FALSE|FALSE (ssRNA)
RNA: GGGAGUUCUACAGUCCGACGAUCGAAGAAAUACAGAAACCACAAAACACCUUUUAGACCUUAAUUUCAAGGAGUGAACCUAUUUCCACAGACCAUUAAGACAAAAGUGUUUCUUGGACAUUUAUGUUUUCCACACGUCUGUCCCAACAGAGGAUUGAGCAUCA
B19: 183676287_183676407_4950_CDS_ENSG00000218336_ENST00000511685|human|control|control (ssRNA)
RNA: GGGAGUUCUACAGUCCGACGAUCAAACGUUGUCCAUCCAGUUUCAUCACUUUUAGUGGCUAAAAGGCCACUAUUGCCAUGGUAAGUAAACAAAACUAAUUCCAGUCCUUGAGCAGUCAUGCUUUUCAAACAUCCAUUUGUUCCCAACAGAGGAUUGAGCAUCA
B20: chr2:104630212:104630213:-_ENSMUSG00000074994_ENSMUST00000117237|mus_hu|motif|central (ssRNA)
RNA: GGGAGUUCUACAGUCCGACGAUCUGUAGUGUUAAAAGUUGAAUCCUGAAGCACCAAAGGUGAAGUGGUAGCAAAGUUUCGGUUGCUGAAGGUGGUGGGAUGCUGAUAAGCAGAGAGAGAUGGUGGAAGUGUUCCAGUGCUUGGCAACAGAGGAUUGAGCAUCA
B21: 99633858_99633978_4024_3pUTR_ENSG00000106261_ENST00000324306|human|control|control (ssRNA)
RNA: GGGAGUUCUACAGUCCGACGAUCUUGAAGAAAAUCCUUAAAACAUUUUCUGCCUCCAUUUUAGUUACUUAGAUAUACUCUUCUGGAGUAAUGGGUUUUUCUUCCGUUGCAUGGGUAGAAAUAUCCUAGUGACUGGUUGACUUGCAACAGAGGAUUGAGCAUCA
B22: 143722256_143722376_295_CDS_ENSMUSG00000029581_ENSMUST00000031565|mouse|control|control (ssRNA)
RNA: GGGAGUUCUACAGUCCGACGAUCCUCGCGCUCGCAGGUCACGUUGCCGUCCUUGUCGGCGGCCAGGUAGCGACCCAGGUGGCUGCGCAGACACACGGCCGCGCUGCCCGCCUCAUCGGGAGGUUGCUCCAGCGUCCAGAUCUGCAACAGAGGAUUGAGCAUCA

Some of the results follow.

The assay concerns the target T1, UNK ZnF1-3 (human, UniProt Q9C0B0 31-174).
T1 sequence: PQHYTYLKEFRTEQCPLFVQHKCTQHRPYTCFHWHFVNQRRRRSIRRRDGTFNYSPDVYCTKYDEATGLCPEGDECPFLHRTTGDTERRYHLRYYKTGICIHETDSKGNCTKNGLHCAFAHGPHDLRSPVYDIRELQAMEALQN
Kind of assay: nsRBNS (natural sequence RNA bind-n-seq); RBNS binding buffer (assumed for nsRBNS): 25 mM Tris pH 7.5, 150 mM KCl, 3 mM MgCl2, 0.01% Triton X-100, 500 ug/ml BSA, 20 U/ml SUPERase-In, 4 C; UNK is unkempt and MSI1 is Musashi-1; names of the RNAs are library labels; protein concentration not given here; high values mean tight binding.
In turn, B1 came in with a binding signal of 1.52 enrichment R.

As to B2, the binding signal came to 1.17 enrichment R.

For the molecule B3, the binding signal was 0.792 enrichment R.

For B4, the binding signal amounted to 0.94 enrichment R.

In turn, B5 displayed a binding signal of 1.13 enrichment R.

Take B6: the binding signal turned out to be 0.782 enrichment R.

As for B7, the binding signal came to 0.804 enrichment R.

Molecule B8 showed a binding signal of 1.18 enrichment R.

Molecule B9 came in with a binding signal of 1.61 enrichment R.

B10 had a binding signal of 0.894 enrichment R.

The molecule B11 had a binding signal of 2.02 enrichment R.

Molecule B12 displayed a binding signal of 1 enrichment R.

B13 registered a binding signal of 0.419 enrichment R.

In the case of B14, the binding signal came out at 1.05 enrichment R.

B15 showed a binding signal of 0.391 enrichment R.

Molecule B16 yielded a binding signal of 0.641 enrichment R.

With B17, the binding signal is 1.17 enrichment R.

For the molecule B18, the binding signal is 0.737 enrichment R.

Molecule B19 displayed a binding signal of 1.16 enrichment R.

The molecule B20 had a binding signal of 2.37 enrichment R.

B21 returned a binding signal of 0.727 enrichment R.

B22 showed a binding signal of 0.562 enrichment R.
